The values that follow come from PubChem BioAssay AID488969 (Vanderbilt High Throughput Screening Facility, 2010).

The full ranking holds about 110,000 compounds; the median of “z-score” is about -0.1, and the highest 2% start at about 2. The list shows a part of the results.

The experiment concerns the target Metabotropic glutamate receptor 8 (Rattus norvegicus) (UniProt P70579). Briefly: mGluR8 Gi/Go-coupled signaling modulation – cell-based, rat, thallium flux, HTS, primary screen (AID 488969). As to conditions: HEK293 rat mGluR8, GIRK (G protein-gated inwardly rectifying potassium channel) thallium flux, FluoZin2; at 10 µM; stronger effect = higher value; submaximal glutamate (EC20) added with thallium.
Chain of UniProt P70579 (P70579 whole entry, looked up): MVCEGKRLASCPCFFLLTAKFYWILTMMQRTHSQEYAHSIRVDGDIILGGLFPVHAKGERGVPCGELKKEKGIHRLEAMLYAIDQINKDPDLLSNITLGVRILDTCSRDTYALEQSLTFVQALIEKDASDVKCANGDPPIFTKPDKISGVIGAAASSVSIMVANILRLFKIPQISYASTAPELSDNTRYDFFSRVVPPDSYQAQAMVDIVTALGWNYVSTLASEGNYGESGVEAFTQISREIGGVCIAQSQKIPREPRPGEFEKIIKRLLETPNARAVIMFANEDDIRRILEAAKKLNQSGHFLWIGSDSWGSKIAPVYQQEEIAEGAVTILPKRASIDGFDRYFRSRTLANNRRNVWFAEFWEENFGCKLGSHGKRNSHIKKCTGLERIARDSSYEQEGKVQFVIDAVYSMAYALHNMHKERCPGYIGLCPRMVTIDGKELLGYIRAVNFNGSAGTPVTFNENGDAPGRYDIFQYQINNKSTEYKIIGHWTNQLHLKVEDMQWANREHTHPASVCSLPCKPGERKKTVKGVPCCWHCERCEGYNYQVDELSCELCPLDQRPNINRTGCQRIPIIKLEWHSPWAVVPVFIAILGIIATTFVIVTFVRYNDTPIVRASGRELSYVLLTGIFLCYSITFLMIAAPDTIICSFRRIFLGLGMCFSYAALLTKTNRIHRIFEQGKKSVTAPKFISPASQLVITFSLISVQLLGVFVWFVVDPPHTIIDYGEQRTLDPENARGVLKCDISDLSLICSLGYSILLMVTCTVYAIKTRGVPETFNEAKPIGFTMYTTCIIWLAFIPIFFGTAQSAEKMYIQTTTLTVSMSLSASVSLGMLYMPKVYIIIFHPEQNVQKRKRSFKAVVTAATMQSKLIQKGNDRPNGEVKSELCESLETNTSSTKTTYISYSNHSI
On to `CN(C)C(=O)CSc1nnc(Cc2ccc([N+](=O)[O-])cc2)o1`, for which the z-score was -0.065. The compound `CC(C)Oc1ccc2c(c1)OC(c1ccccc1)(C(F)(F)F)NC2=O` (stereo not given) gave a z-score of -0.285. The result for `COc1ccc(S(=O)(=O)n2nc(OC(=O)c3cccs3)cc2N)cc1` reads -0.212.

Regarding `CN(C)CCCN(CCCNC(=O)/C=N/O)Cc1ccccc1`, the z-score was -0.107. In the case of `Cn1c(Cn2c(=O)sc3ccccc32)nnc1SCc1ccccc1F`, the z-score was -0.235. Turning to `CCOC(=O)C1CCCN(C(=O)CCc2ccccc2)C1` (stereo not given), the z-score was 0.612. Compound `O=C(NNc1ccc([N+](=O)[O-])cc1)C1CC2CCCC(C1)C2=O` (stereo not given) yielded a z-score of -0.109. `COc1ccccc1NC(=O)c1ccccc1NS(C)(=O)=O` showed a z-score of -0.0773. The compound `CCOC(=O)CCC(=O)Nc1cccc([N+](=O)[O-])c1` gave a z-score of 0.0456. Turning to `CC(=O)Nc1cccc(Cn2cccn2)c1`, the z-score was -0.044. `CC[C@H](C)[C@H](NC(N)=O)C(=O)Nc1ccc(C)cc1` showed a z-score of 0.201. As for `O=C(Cc1cccs1)N1CCN(c2ccc(F)cc2)CC1`, the z-score was 0.065. Turning to `Cc1ccc(C(=O)NC(=S)Nc2cccc3nsnc23)cc1`, the z-score stood at 1.1.

Take `COc1ccc(N(C(=O)c2cccc([N+](=O)[O-])c2)S(=O)(=O)c2ccc3c(c2)n(C)c(=O)n3C)cc1`: the z-score is -0.184. The result for `CCNC(=O)c1ccccc1NC(=O)c1cccc(S(=O)(=O)N2CCC(C)CC2)c1` reads -1.17; that for `CC1CCN(S(=O)(=O)c2cccc(C(=O)N(C)C3CCS(=O)(=O)C3)c2)CC1` (stereo not given), -0.196; that for `CC(C)C(NC(=O)c1ccc(C(C)(C)C)cc1)C(=O)OCC(=O)NC(=O)Cc1ccccc1` (stereo not given), -0.491. The compound `O=C(Nc1ccc(Oc2ccc(NC(=O)c3ccco3)c(NC(=O)c3ccco3)c2)cc1)c1ccco1` gave a z-score of -1.59. `Cc1ccc(C2CC(c3ccccc3OC(F)F)Nc3ncnn32)cc1` (stereo not given) displayed a z-score of 0.677. As to `CC(C)(C)C1CCc2c(sc(N)c2C(N)=O)C1` (stereo not given), the z-score was 0.466. In turn, `O=C(COc1ccc(-c2ccccc2)cc1)N/N=C/c1ccccc1Br` yielded a z-score of 0.735. In turn, `COC(=O)C(C)n1cnc2c(nnn2-c2ccc(OC)cc2)c1=O` (stereo not given) gave a z-score of 0.0276. `CCOc1ccc(C(=O)NC(=S)Nc2ccccc2OC)cc1[N+](=O)[O-]` registered a z-score of -0.13. For `Cc1ccc(-n2nc3ccc(NC(=O)/C=C/c4ccco4)cc3n2)cc1C`, the z-score was -0.0621. `O=C(O)c1ccc(S(=O)(=O)c2ccc3c(c2)C(=O)N(Cc2ccco2)C3=O)cc1` came in with a z-score of 0.095. `Cc1cc(N(CN2CCCC2=O)C(=O)c2ccccc2)no1` came in with a z-score of -0.368. For `Cn1c(N2CCCCC2)nc2c1c(=O)n(Cc1cccc(Br)c1)c(=O)n2C`, the z-score was -0.647.

In the case of `CC1(NC(=S)NCCO)CCS(=O)(=O)C1` (stereo not given), the z-score is -0.248. Regarding `N#Cc1ccccc1NC(=O)COC(=O)c1ccc2c(c1)OCCO2`, the z-score was 0.88. Take `O=c1c2nnn(Cc3ccccc3)c2ncn1-c1ccccc1`: the z-score is -0.0489.
